# In PubChem BioAssay AID588855 (National Center for Advancing Translational Sciences (NCATS), 2011):
# Several values for one entry are separate records, joined by “and”; a condition that tells them apart may be missing. Equal entries are not always repeated. Among all 410,000 compounds or so, about 5,000 (1.2%) were called active. Inconclusive results, whose numbers are uncertain, are shown with a selection of clear calls. Calls come from the whole dose curve; as a rule, active = well fitted inhibition curve with a large enough effect; inconclusive = small, poorly fitted or top-dose-only effect; inactive = no such curve, though single readings can be large or run the other way. Potencies of inconclusive entries are doubtful fits and often do not repeat.
# Experiment: qHTS for Inhibitors of TGF-b; note: nearly all actives have a fitted effect of over 65% in size
# Details: HepG2 CAGA-GFP TGF-b/SMAD3 reporter, GFP fluorescence, 18 h, TGF-beta stimulated, 500 pg/mL final; series mostly up to 46.1 µM; activity, negative = inhibition: at the top concentration
# Method in brief: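 Using HEPG2 CAGA-GFP reporter cells at 1000 cells/well, we pinned test compounds, stimulated with recombinant TGF-beta (500 pg/mL final) and measured total well GFP after 18 h.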
# % is set by controls: 0 for no effect and ±100 for the full control effect; potency is the fitted concentration of half-maximal effect; tags give direction and shape of the fitted curve.
SMILES,Potency,"activity, negative = inhibition"
Cc1cccc(CSc2cn(CC(=O)N3CCCCCC3)c3ccccc23)c1,"inconclusive: 12.6 µM [inhibitor, partial curve]",
O=C(O)c1ccc(/C=N/Nc2ccc(F)cc2F)cc1,,inactive: -9.79%
CSc1ccc(CN2CCC(C(=O)NCc3ccc(C)cc3)CC2)cc1,"inconclusive: 14.1 µM [inhibitor, single point]",
CC(C)OCCCNC(=S)N1CCC(C(=O)c2ccc3c(c2)OCCO3)CC1,"inconclusive: 17.8 µM [inhibitor, single point]",
CN(C)CCCN(C(=O)c1ccco1)c1nc(-c2ccc(Cl)cc2)cs1,"inconclusive: 35.5 µM [inhibitor, single point]",
CNS(=O)(=O)c1cccc(C(=O)NCC(c2cccs2)N(C)C)c1 (centres undefined),,inactive: 1.37%
O=C(CC12CC3CC(CC(C3)C1)C2)Nc1c(F)cccc1F,,inactive: -17.3%
O=C(NCC1CCCO1)C(=O)N/N=C/c1cc(Cl)ccc1O (centres undefined),"inconclusive: 7.94 µM [inhibitor, partial curve, poor fit]",
C=C1[C@@H](O)[C@H](CC(C)C)N(Cc2ccccc2Br)S1(=O)=O,active: 6.31 µM and active: 8.91 µM,
COc1ccc(C(CNC(=O)c2ccc(-c3ccccc3Cl)o2)N2CCCC2)cc1 (centres undefined),"inconclusive: 25.1 µM [inhibitor, single point]",
CCn1c(=NC(=O)CS(=O)(=O)c2ccc(C)cc2)sc2cccc(OC)c21,"inconclusive: 0.562 µM [inhibitor, full curve]",
Cc1cc[n+](CC(=O)c2ccccc2)c2ccccc12,inactive,
C#CCOC(=O)Nc1cc(C)n(-c2ccccc2)n1,"inconclusive: 35.5 µM [inhibitor, single point]",
Cc1ccc(C)c(NC(=O)CN2C(=O)c3ccccc3C2=O)c1,,inactive: 1.16%
Cc1ccc2oc(-c3ccc(NC(=O)c4cccnc4)cc3)nc2c1,,inactive: -8.46%
COc1cccc(N2CCN(C(=O)c3ccc4c(Cl)c5c(nc4c3)CCCC5)CC2)c1,active: 11.2 µM,
Cc1cc2c(cc3c(SCc4cccc(Cl)c4)nnc(C)n32)o1,"inconclusive: 35.5 µM [inhibitor, single point]",
Cc1ccc(S(=O)(=O)N2CCC(C(=O)Nc3ccccc3N3CCCC3)CC2)cc1,"inconclusive: 31.6 µM [inhibitor, partial curve, poor fit]",
COc1ccc(-c2c[n+]3c(n2-c2ccccc2)SCC3)cc1,"inconclusive: 5.01 µM [inhibitor, partial curve, poor fit]",
Oc1c(/C=C/C=C/C=Nc2ccccc2)sc(=S)n1Cc1ccccc1,"inconclusive: 8.91 µM [inhibitor, single point]",
CN(C(=O)c1ccc(NC(=O)Cc2cccc(NC(=O)C3CCCN(C(=O)C4CCCC4)C3)c2)cc1)C1CCCC1 (centres undefined),"inconclusive: 12.6 µM [inhibitor, single point]",
O=C(NCC(c1ccco1)N1CCc2ccccc2C1)C(=O)Nc1cc(F)ccc1F (centres undefined),"inconclusive: 14.1 µM [inhibitor, single point]",

SMILES,Potency,"activity, negative = inhibition"
C(=C\c1ccccc1)/CN1CCN(C(c2ccccc2)c2nnnn2Cc2ccccc2)CC1 (centres undefined),"inconclusive: 12.6 µM [inhibitor, partial curve, poor fit]",
Cc1ccc(NC(=O)CSc2ncnc3ccccc23)cc1S(=O)(=O)N1CCOCC1,"inconclusive: 35.5 µM [inhibitor, single point]",
CCOc1cccc(C(=O)NC(=S)Nc2ccccc2)c1,,inactive: 0%
CCN(CC)S(=O)(=O)c1ccc(N2CCOCC2)c(NS(=O)(=O)c2cc(C(C)(C)C)ccc2C)c1,"inconclusive: 25.1 µM [inhibitor, single point]",
CC(C)c1ccc(CNc2nc(NCC3CC3)nc3ccsc23)cc1,"inconclusive: 22.4 µM [inhibitor, single point]",
Cn1cc(S(=O)(=O)c2ccccc2)c(=O)c2cc(F)c(N3CCCC3)cc21,,inactive: 1.15%
Cc1cc(C)c(CN2CCN(CCCn3cnc(C(=O)Nc4ccc(C)c(C)c4)n3)CC2)c(C)c1,"inconclusive: 35.5 µM [inhibitor, single point]",
S=C(NCc1ccccn1)Nc1ccc(Cl)c(Cl)c1,"inconclusive: 20 µM [inhibitor, single point]",
COC(=O)C1=C(O)/C(=C\c2cc(C)n(-c3ccccc3C)c2C)N=C1C,,inactive: -3.29%
CN1CCC(N(C)S(=O)(=O)c2ccc(NC(=O)COc3cccc(C(F)(F)F)c3)cc2)CC1,,inactive: 2.44%
CCc1cccc(C)c1NC(=O)c1cc2ccccc2o1,"inconclusive: 35.5 µM [inhibitor, single point]",
CCOc1ccc(N(CC(=O)NCc2ccccc2)C(=O)Cn2nnc(-c3ccc(C)o3)n2)cc1,,inactive: 7.63%
Cc1ccc(Nc2c3c(nc4ncnn24)CC(C)CC3)cc1 (centres undefined),"inconclusive: 22.4 µM [inhibitor, single point]",
COc1ccc(C2=Nn3c(nnc3-c3ccncc3)SC2)cc1OC,,inactive: 45.5%
O=C(Nc1ccc(CN2CCOCC2)cc1)c1cccc(F)c1,"inconclusive: 14.1 µM [inhibitor, single point]",
CCOc1ccc2[nH]c3c(NCCC(C)C)ncnc3c2c1,"inconclusive: 35.5 µM [inhibitor, single point]",
Cc1nc2ccccn2c(=O)c1NC(=O)c1ccc2c(c1)OCO2,,inactive: -0.799%
O=S(=O)(NC1CCCC1)c1ccc(S(=O)(=O)N(Cc2cccs2)CC2CCCO2)cc1 (centres undefined),"inconclusive: 28.2 µM [inhibitor, partial curve, poor fit]",
COC(=O)c1cc(OC)c(OC)cc1NC(=O)Cc1ccccc1[N+](=O)[O-],"inconclusive: 6.31 µM [inhibitor, single point]",
CCCCN(CCCC)C(=S)N/N=C/c1c(C)[nH]n(-c2ccccc2)c1=O,"inconclusive: 8.91 µM [inhibitor, partial curve, poor fit]",
COc1ccc(S(=O)(=O)NC2CC(C)(C)NC(C)(C)C2)cc1C(C)C,,inactive: -20.8%
COc1ccc2[nH]c3c(c2c1)CCN1C(=O)C(CC(=O)NCc2cccc(C(F)(F)F)c2)C[C@H](C(=O)N2CCOCC2)[C@@]31C (some centres undefined),"inconclusive: 35.5 µM [inhibitor, partial curve, poor fit]",
